The source of these data is paper PMC5404542, “In Vitro and In Vivo Antifungal Profile of a Novel and Long-Acting Inhaled Azole, PC945, on Aspergillus fumigatus Infection” (Antimicrobial Agents and Chemotherapy, 2017).

The subject of this test is A. fumigatus (ATCC 13073 [strain NIH 5233]). Description: In vivo antifungal activity, intranasal treatment of temporarily neutropenic immunocompromised mice. The conditions noted are these: collected on day 7 postinfection or on the day of dropout.

For the compound `Cc1cc(N2CCN(c3ccc(C(=O)Nc4ccc(F)cc4)cc3)CC2)ccc1OC[C@@H]1CO[C@@](Cn2cncn2)(c2ccc(F)cc2F)C1` [PC945, 4-[4-(4-{[(3R,5R)-5-(2,4-difluorophenyl)-5-(1H-1,2,4-triazol-1-ylmethyl)oxolan-3-yl]methoxy}-3-methylphenyl)piperazin-1-yl]-N-(4-fluorophenyl)benzamide], the “GM level in bronchoalveolar lavage fluid (BALF)” value is “significantly reduced”.
